{"source": "the supplement of paper PMC12632987", "binders": {"B1": {"name": "LC3A_128_226 (protein)", "chain": "SEEIKDLLEDLEEALKDLKELATTEELKKLLEEAEKLLKELKELIKKGASIEEIKKKAKELLKTVEEFLKLAEEKGVKNKVALNAAEIDLANAEEELEEI"}, "B2": {"name": "LC3A_28_760 (protein)", "chain": "MNIKEEVEAAIKEAKEAKAKGEEKVIRITVPAGATQEDIEIVIEGLEKIAEINKDMKSTSIVIDVEAGVSQENIDKLIDAGEEIEKKYPNITVIFALDED"}, "B3": {"name": "LC3A_3_1855 (protein)", "chain": "MEEIIEEALKLLKELGRSEETIEAARKLLEALKERGFEEAAKVLLEELKKLKNVSDEDLLEMFNELLKALEEEDLNEEEAIELIKSEARVLLNAEEIEEL"}, "B4": {"name": "LC3A_3_1381 (protein)", "chain": "MEELLERLREILEEQGRSEETIEAALRLLRALLERGFLEAAETVIEKVEESEDLSDENLLWIFEEVLEAVENEDLSEEELIELINELFRVAKSDEEIIEL"}, "B5": {"name": "LC3A_132_318 (protein)", "chain": "EEELYRRLREEVERAIEEARENLENQEKVDELAEEVRRLLERAAEEISPEQTAELAREAAERADEVAREAEAAGKENVALTFDGLAVYADALAIRAEEKL"}, "B6": {"name": "LC3A_3_1748 (protein)", "chain": "MEERLARVRALLEAQGRSEETIAAALRLVTLLLERGFEEAVETLEELLAEAEDLPDEILLDMLEDILEYVESNDIDEEEAIEKIKEEFSVARSEAEIIEL"}, "B7": {"name": "LC3A_3_1911 (protein)", "chain": "AEEALKALREQLKALGHSEEVIAAALAAAKLLLKAGNEEGVKLLAEAAKATAKLPEADQLAFFEDLKAELEALADDPEAQLAAAREFKRLAENAAEIEEI"}, "B8": {"name": "LC3A_17_535 (protein)", "chain": "MEELREELEEALRRAEELVERVEEYDPEAAKEFRKKLEEIRKLIEEGKLREAAEKLEELARELADHIESLEWEDPVEQEVLLMEANGIELEAIGILLKLD"}}, "note": "Over roughly 2,300 sequences, “median log2 fold change of GCK-ALFA target abundance (FLAG IP / Myc IP barcode read proportion)” has its median near 0.095; the lowest 2% begin near -0.47. Some of the results follow."}
{"biological_target": "MAP1LC3A, Q9H492", "assay": "median log2 fold change of GCK-ALFA target abundance (FLAG IP / Myc IP barcode read proportion) (log2 ratio); each designed protein is fused to an ALFA-tag nanobody in HEK293 cells to bring the named protein to FLAG-tagged glucokinase (GCK); Myc marks an untargeted standard; higher = target protein stabilised (more abundant)", "conditions": "target protein: 3xFLAG-MCP-GCK-ALFA reporter; HEK293 landing pad (RPLP)", "summary_of_the_method": "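Sequencing of reverse-transcribed, amplified circular RNA barcodes from anti-FLAG and anti-Myc immunoprecipitates provided the readout for an ALFA-nanobody-fused binder library recombined into HEK293 landing-pad cells. Those cells were induced with 2 μg mL^−1 doxycycline, transfected with a plasmid expressing a FLAG-tagged target and a Myc-tagged standard, and lysed after 48 h. Target abundance is the per-binder median log2 ratio of FLAG to Myc barcode read proportions. Only barcodes at a proportion of ≥10^−7 in both replicates and binders with ≥3 barcodes per replicate were kept, with a 10^−6 pseudocount added before the two replicates were pooled.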"}
{"binder": "B1", "median log2 fold change": -0.0132}
{"binder": "B2", "median log2 fold change": -0.183}
{"binder": "B3", "median log2 fold change": 0.224}
{"binder": "B4", "median log2 fold change": -0.16}
{"binder": "B5", "median log2 fold change": 0.106}
{"binder": "B6", "median log2 fold change": 0.031}
{"binder": "B7", "median log2 fold change": 0.284}
{"binder": "B8", "median log2 fold change": -0.083}
